Results taken from the RNAGym collection of RNA variant scans (doi:10.7554/elife.90254).
The source gives no read counts; variants with many changes may rest on few reads.

B1: LINE1-mini (parent)
chain: GGCAGAGCUCAACACAGCGUGGCAAAGUGGCUGUGGCUAGACUGCC

Variants of: B1
Assay: self-cleavage, relative activity (ratio to wild type); higher = more cleavage; in vitro, sequencing; the parent is a self-cleaving ribozyme

Row | Variant | self-cleavage
1 | A12C G29U U32A | 0.01
2 | A12C G22U G35U C45U | 0.02
3 | A12G A16C G40A | 0.01
4 | A12G G27A U34A C45A | 0.04
5 | A12C G30U G36C C37A | 0.01
6 | A12U C13A C42A | 0.07
7 | A12G C23G G29U G44A | 0.02
8 | A12G G21U A25U | 0.02
9 | A12G A16U U28G | 0.05
10 | A12G C42U C45U | 0.02
11 | A12G U28G A41C C42U U43A C45G | 0.02
12 | A12U C15U A16U G19U C42G | 0.15
13 | A12U C15U C18G U20A G35C | 0.02
14 | A12G G35C U38A | 0.08
15 | A12G C31U U43A | 0.02
16 | A12C G27U C37U | 0.03
17 | A12G U28A C42U C45A | 0
18 | A12C U34C A39C C46U | 0
19 | A12G C18U G19C | 0
20 | A12U C13A C45U | 0.14
21 | A12C U20A C45A | 0.02
22 | A12U A24U G27A G40U C45G | 0.04
23 | A12G A26U G29C | 0.03
24 | A12U C13G A14C | 0.01

Row | Variant | self-cleavage
25 | A12U C13G C23U A24G | 0.16
26 | A12G G19A C23A G36C | 0.02
27 | A12G G27U G33U G35A A41G | 0.01
28 | A12G G17C C31G | 0
29 | A12G C18U A24C A26G G35U C46A | 0.03
30 | A12G A24U U32G U38G | 0.02
31 | A12C U32C C42U C46A | 0.01
32 | A12U A14U A25U C42A | 0.01
33 | A12U C15U A24U | 0.03
34 | A12U C13A G30A | 0.2
35 | A12U C13G G35U | 0.68
36 | A12G G27C U34C C37G | 0.02
37 | A12G G21A A24G | 0.02
38 | A12U A24G A41C | 0.04
39 | A12G A16U G27C C37U | 0.17
40 | A12G G27A G29C A39C C42U | 0.03
41 | A12C G35U C37A | 0.07
42 | A12U C13U C18A A26G U43C | 0.02
43 | A12C U28G U32A | 0.02
44 | A12C C42U G44U | 0.01
45 | A12C G29A G35A G44A C45A | 0.07
46 | A12C G27C C45U | 0.02
47 | A12G U20A A26G | 0
48 | A12G C13U A41G | 0.03

Row | Variant | self-cleavage
49 | A12G G17U G33A | 0.03
50 | A12U C13A A41G | 0.04
51 | A12U C13U A41U C45A | 0.06
52 | A12C G27A A41U | 0.02
53 | A12G C18U U20C C23G | 0.01
54 | A12U A25U U34G | 0.02
55 | A12G G27U U28C C31U C42U | 0.11
56 | A12C G22A U32A G36A | 0.02
57 | A12U A16G U38A A39C C42G | 0.02
58 | A12C G29C A41C | 0.01
59 | A12G A16C G21U U28C G33A | 0.01
60 | A12C G29A G30C C37U | 0.01
61 | A12C G29C C42G | 0
62 | A12U A16G G33C G40U | 0.01
63 | A12C G29A C31U A41C | 0.02
64 | A12G G19U C42G C45G | 0.01
65 | A12C G29A G30A C31G | 0.01
66 | A12C G29A C37G C45A | 0
67 | A12U A14U U32G U43A G44A | 0
68 | A12G G22A G30C C45G | 0.03
69 | A12U A16U A26G G27A G33A | 0.03
70 | A12U A24G C31A | 0
71 | A12U C18A G33U G35A U38C | 0.03
72 | A12U C13A A16G U32A U34A | 0.02

Row | Variant | self-cleavage
73 | A12G C42G G44C | 0
74 | A12C C31U G40U | 0.02
75 | A12G C37U C42G | 0.04
76 | A12G G17A A26C C37G | 0.01
77 | A12G A16U G29U | 0.03
78 | A12G A16G G17U | 0.04
79 | A12G G17U U43G | 0
80 | A12G A14U C23U G27A G30C C46U | 0.01
81 | A12U A25U U38A | 0.03
82 | A12G G22U G27A G40C C46U | 0.04
83 | A12U C23A G36A | 0.01
84 | A12G U34G G40A | 0
85 | A12C U20G C23A | 0
86 | A12U A16C U20A | 0.08
87 | A12U A14C C31G | 0
88 | A12G C13G G35C | 0.01
89 | A12U C15A U20A G22A | 0.06
90 | A12C C42U U43C C46U | 0
91 | A12C G21U U32G | 0.02
92 | A12C G22A G44C | 0.05
93 | A12C U34A C42U | 0.01
94 | A12G C18U A26C G27U G29C | 0
95 | A12G U20C G21U U38G G40U | 0.01
96 | A12U A16G G30A | 0.03

Row | Variant | self-cleavage
97 | A12G C13G G40C C45A C46G | 0.02
98 | A12U A24G U28A G44U | 0.02
99 | A12C G17A G21A G36A C42A | 0.01
100 | A12U A25C U38G C46A | 0.01
101 | A12G U28C C31A | 0.01
102 | A12G C13A C15G | 0.02
103 | A12G A26G U32A U34A G35U A41U | 0.11
104 | A12U C13A G33C C42U | 0.02
105 | A12U A14C G17C C18U C23A G33C | 0.01
106 | A12U C13G C23G | 0.58
107 | A12U A24U C45A | 0.17
108 | A12G A24U A26C | 0.01
109 | A12G A24G G29C G30C U32G G35A C45A | 0.01
110 | A12G C15A G19U G21U C31G U38G | 0.12
111 | A12C G35U U38A | 0.06
112 | A12U C13G C46G | 0.04
113 | A12C G22U G30U | 0.02
114 | A12G U28A G33C G36U C46G | 0.02
115 | A12U A24G G36A U38G | 0
116 | A12U C13U A14G C15U | 0.02
117 | A12U A24U U28A U34C G36U | 0.04
118 | A12U C13U A14U C42G | 0.09
119 | A12U A24C G29U | 0.22
120 | A12U C18U G36U | 0.03

Row | Variant | self-cleavage
121 | A12C G29U G33A | 0.01
122 | A12U C13G A41C | 0.08
123 | A12G C31U G33C G44A | 0.02
124 | A12U A24U C42U | 0.15
125 | A12C U28G G40A C42A | 0
126 | A12G U20C A24C C37G | 0.01
127 | A12C G27U U34C | 0.01
128 | A12G G22C A25U | 0.03
129 | A12U C18G G40A | 0.04
130 | A12G A26G C42U | 0.13
131 | A12G G21C C37U | 0.04
132 | A12G C18U C37U | 0.08
133 | A12G G27C G33A C46A | 0.11
134 | A12G G17U G40A | 0
135 | A12G C15U A39G | 0
136 | A12G G36A C42U U43C | 0.11
137 | A12U C18U G29A G30C | 0.51
138 | A12U C23A G35U | 0.14
139 | A12C G27C C31U G35A C46A | 0.02
140 | A12C G33A U34A | 0.03
141 | A12C G19U A25U | 0
142 | A12G G17U A24U G40U U43A | 0.01
143 | A12C G33A U43A G44A | 0.01
144 | A12C C31U C37U | 0.02

Row | Variant | self-cleavage
145 | A12C G21U G27A G44A | 0.01
146 | A12C G33A C42U | 0.08
147 | A12G G33U C37U | 0.14
148 | A12C U28G C46A | 0.01
149 | A12U A14U A16G | 0.02
150 | A12G G22A A25C C46A | 0.02
151 | A12G G17C G21A | 0.01
152 | A12C C37U C42G C46U | 0.01
153 | A12U C23A A24G A25C A26U U32C | 0.02
154 | A12C G17C G19A G27A G44U | 0.02
155 | A12G A16G G17U C42A | 0.36
156 | A12G A14C G22A C31A | 0.03
157 | A12U C18A C23G A26C | 0.16
158 | A12U C13A C18U G30C G36U | 0.09
159 | A12G U28C A41U | 0.01
160 | A12G C15A A16C C31U U34A | 0.01
161 | A12C G22C G35C A41C C46U | 0
162 | A12U C13U A41G | 0.05
163 | A12G C13U G19A G21U | 0.04
164 | A12U A24G G35A A41U | 0.2
165 | A12C U34G G40U | 0
166 | A12G C15U U28C C37U | 0.02
167 | A12G G29A G33A C37A | 0.05
